In the supplement of paper PMC4967469:
IC50 is the fitted dose that halves viability relative to control wells, and lower means more sensitive; a fit beyond the top or the lowest dose is shown as a bound at that dose. AUC is the area under the same curve over the 256-fold range up to the top dose, as a fraction: 1 means no effect, lower means more sensitive. For some assays here: Any top dose called inferred was calculated from the reported fits. For some assays here: Drugs with an entry number were screened twice under separate entries, and the two screens often disagree.

What was measured:
Assay in all cases: Viability of human cancer cell lines after 72 h of drug (GDSC screen)
[1] = compound: COC(=O)[C@H](CCSC)NC(=O)c1ccc(NC[C@@H](N)CS)cc1-c1ccccc1 [FTI-277]; details: top dose 1.024 µM; top dose inferred
Description: (§1)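 Human cancer cell lines in 384-well plates, medium with 10% serum, drug for 72 h over a 256-fold dose range (nine 2-fold or five 4-fold steps up to the top dose). Adherent lines were fixed and stained with the nucleic acid dye Syto60, suspension lines read with resazurin; signal relative to control wells, capped at 0 and 100%. One two-parameter sigmoid per drug and line, fitted in a mixed model over all curves with the slope shared within a line.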

[2] = compound: C[C@]1(O)C[C@@H](c2nc(-c3ccc4ccc(-c5ccccc5)nc4c3)c3c(N)nccn32)C1 [OSI-906]; details: top dose 2.56 µM; top dose inferred
Description: as §1

[3] = compound: CC1(C)CNc2cc(NC(=O)c3cccnc3NCc3ccncc3)ccc21 [AMG-706]; details: top dose 2 µM; top dose inferred
Description: as §1

[4] = compound: c1ccc2c(CCNc3ccc(Nc4ccncc4)cc3)c[nH]c2c1 [JNJ-26854165]; details: top dose 10 µM
Description: as §1

[5] = compound: COCC[n+]1c2c(n(Cc3cnccn3)c1C)C(=O)c1ccccc1C2=O [YM155]; details: top dose 5.12 µM
Description: as §1

[6] = compound: Cc1ccc(C(=O)N(CCCN)[C@@H](c2nc3cc(Cl)ccc3c(=O)n2Cc2ccccc2)C(C)C)cc1 [SB-715992]; details: top dose 0.128 µM; top dose inferred
Description: as §1

[7] = compound: CCOc1nc(NC(=O)Cc2cc(OC)ccc2OC)cc(N)c1C#N [JNK Inhibitor VIII]; details: top dose 10 µM; top dose inferred
Description: as §1

[8] = compound: CC(=O)O[C@@]12CO[C@@H]1C[C@H](O)[C@@]1(C)C(=O)[C@H](O)C3=C(C)[C@@H](OC(=O)[C@H](O)[C@@H](NC(=O)OC(C)(C)C)c4ccccc4)C[C@@](O)([C@@H](OC(=O)c4ccccc4)[C@H]21)C3(C)C [Docetaxel]; details: top dose 0.0125 µM
Description: as §1

[9] = compound: CN1CCN(c2ccc([N+](=O)[O-])c3no[n+]([O-])c23)CC1 [NSC-207895]; details: top dose 20 µM; top dose inferred
Description: as §1

[10] = compound: O=C(/C=C/c1cccc(S(=O)(=O)Nc2ccccc2)c1)NO [Belinostat]; details: top dose 20 µM; top dose inferred
Description: as §1

[11] = compound: OCCCNc1cc(-c2ccnc(Nc3cccc(Cl)c3)n2)ccn1 [CGP-60474]; details: top dose 0.256 µM; top dose inferred
Description: as §1

[12] = compound: Cc1sc2c(c1C)C(c1ccc(Cl)cc1)=N[C@@H](CC(=O)OC(C)(C)C)c1nnc(C)n1-2 [JQ1]
Description: as §1

[13] = compound: CC1=C2C[C@H]3[C@@H](CC=C4C[C@@H](O)CC[C@@]43C)[C@@H]2CC[C@]12O[C@@H]1C[C@H](C)CN[C@H]1[C@H]2C [Cyclopamine]; details: top dose 16 µM; top dose inferred
Description: as §1

[14] = top dose 1 µM, screen: GDSC drug entry 1218, top dose inferred
[15] = top dose 2.56 µM, screen: GDSC drug entry 163

Row | Cell Line | AUC [1] | IC50 [1] [µM] | AUC [2] | IC50 [2] [µM] | AUC [3] | IC50 [3] [µM] | AUC [4] | IC50 [4] [µM] | AUC [5] | IC50 [5] [µM] | AUC [6] | IC50 [6] [µM] | AUC [7] | IC50 [7] [µM] | AUC [8] | IC50 [8] [µM] | AUC [9] | IC50 [9] [µM] | AUC [10] | IC50 [10] [µM] | AUC [11] | IC50 [11] [µM] | AUC [12, 14] | IC50 [12, 14] [µM] | AUC [12, 15] | IC50 [12, 15] [µM] | AUC [13] | IC50 [13] [µM]
1 | NCI-H446 (small cell lung carcinoma, semi-adherent) | 0.983 | > 1.02 | 0.986 | > 2.56 | 0.984 | > 2 | 0.986 | > 10 | 0.029 | < 0.02 | 0.695 | 0.0295 | 0.985 | > 10 | 0.815 | 0.00749 | 0.834 | 14.4 | 0.276 | 0.275 | 0.849 | 0.215 | 0.964 | > 1 | 0.751 | 0.9 | 0.956 | > 16
2 | NCI-H720 (lung carcinoid, suspension) | 0.992 | > 1.02 | 0.992 | > 2.56 | 0.991 | > 2 | 0.992 | > 10 | 0.661 | 0.86 | 0.961 | > 0.128 | 0.984 | > 10 | 0.875 | 0.0105 | 0.974 | > 20 | 0.942 | > 20 | 0.98 | > 0.256 | 0.987 | > 1 | 0.992 | > 2.56 | 0.992 | > 16
3 | NCI-H847 (small cell lung carcinoma, adherent) | 0.963 | > 1.02 | 0.855 | 1.46 | 0.993 | > 2 | 0.993 | > 10 | 0.015 | < 0.02 | 0.474 | 0.00687 | 0.993 | > 10 | 0.966 | > 0.0125 | 0.681 | 3.58 | 0.111 | 0.102 | 0.727 | 0.0606 | 0.977 | > 1 | 0.853 | 1.44 | 0.993 | > 16
4 | NCI-H1092 (small cell lung carcinoma, suspension) | 0.985 | > 1.02 | 0.892 | > 2.56 | 0.99 | > 2 | 0.955 | > 10 | 0.373 | 0.143 | 0.867 | 0.117 | 0.99 | > 10 | 0.986 | > 0.0125 | 0.858 | 16.6 | 0.368 | 0.539 | 0.767 | 0.0957 | 0.982 | > 1 | 0.953 | > 2.56 | 0.99 | > 16
5 | NCI-H1155 (large cell lung carcinoma, suspension) | 0.993 | > 1.02 | 0.993 | > 2.56 | 0.987 | > 2 | 0.906 | 9.33 | 0.155 | 0.0372 | 0.889 | 0.1 | 0.986 | > 10 | 0.955 | > 0.0125 | 0.982 | > 20 | 0.373 | 0.598 | 0.904 | 0.233 | 0.993 | > 1 | 0.928 | > 2.56 | 0.993 | > 16
6 | NCI-H1304 (small cell lung carcinoma, suspension) | 0.98 | > 1.02 | 0.919 | > 2.56 | 0.955 | > 2 | 0.878 | > 10 | 0.234 | 0.0504 | 0.886 | > 0.128 | 0.955 | > 10 | 0.987 | > 0.0125 | 0.985 | > 20 | 0.746 | 6.75 | 0.793 | 0.127 | 0.98 | > 1 | 0.752 | 0.909 | 0.988 | > 16
7 | NCI-H1395 (lung adenocarcinoma, adherent) | 0.976 | > 1.02 | 0.982 | > 2.56 | 0.982 | > 2 | 0.836 | > 10 | 0.282 | 0.0623 | 0.925 | > 0.128 | 0.974 | > 10 | 0.719 | 0.00405 | 0.963 | > 20 | 0.589 | 2.37 | 0.739 | 0.0987 | 0.97 | > 1 | 0.982 | > 2.56 | 0.963 | > 16
8 | NCI-H1417 (small cell lung carcinoma, suspension) | 0.971 | > 1.02 | 0.895 | > 2.56 | 0.98 | > 2 | 0.61 | 1.33 | 0.046 | < 0.02 | 0.845 | 0.12 | 0.977 | > 10 | 0.866 | > 0.0125 | 0.805 | 12.5 | 0.236 | 0.182 | 0.877 | > 0.256 | 0.71 | 0.278 | 0.879 | > 2.56 | 0.981 | > 16
9 | NCI-H1436 (small cell lung carcinoma, suspension) | 0.966 | > 1.02 | 0.986 | > 2.56 | 0.964 | > 2 | 0.983 | > 10 | 0.037 | < 0.02 | 0.702 | 0.0323 | 0.985 | > 10 | 0.974 | > 0.0125 | 0.776 | 9.16 | 0.491 | 1.18 | 0.839 | 0.212 | 0.98 | > 1 | 0.93 | > 2.56 | 0.986 | > 16
10 | NCI-H1694 (small cell lung carcinoma, suspension) | 0.989 | > 1.02 | 0.969 | > 2.56 | 0.988 | > 2 | 0.963 | > 10 | 0.072 | < 0.02 | 0.834 | 0.0824 | 0.986 | > 10 | 0.956 | > 0.0125 | 0.839 | 13.5 | 0.292 | 0.324 | 0.88 | > 0.256 | 0.972 | > 1 | 0.879 | > 2.56 | 0.982 | > 16
11 | NCI-H1836 (small cell lung carcinoma, suspension) | 0.987 | > 1.02 | 0.984 | > 2.56 | 0.988 | > 2 | 0.987 | > 10 | 0.35 | 0.118 | 0.782 | 0.0594 | 0.988 | > 10 | 0.961 | > 0.0125 | 0.987 | > 20 | 0.356 | 0.477 | 0.895 | > 0.256 | 0.984 | > 1 | 0.963 | > 2.56 | 0.984 | > 16
12 | NCI-H1869 (lung squamous cell carcinoma, adherent) | 0.985 | > 1.02 | 0.919 | > 2.56 | 0.955 | > 2 | 0.928 | > 10 | 0.04 | < 0.02 | 0.962 | > 0.128 | 0.984 | > 10 | 0.889 | > 0.0125 | 0.964 | > 20 | 0.636 | 3.12 | 0.765 | 0.106 | 0.983 | > 1 | 0.913 | > 2.56 | 0.985 | > 16
13 | NCI-H2135 (non-small cell lung carcinoma, adherent) | 0.972 | > 1.02 | 0.961 | > 2.56 | 0.968 | > 2 | 0.99 | > 10 | 0.029 | < 0.02 | 0.945 | > 0.128 | 0.952 | > 10 | 0.99 | > 0.0125 | 0.657 | 3.36 | 0.258 | 0.26 | 0.805 | 0.125 | 0.99 | > 1 | 0.703 | 0.583 | 0.991 | > 16
14 | NCI-H2141 (small cell lung carcinoma, suspension) | 0.991 | > 1.02 | 0.883 | > 2.56 | 0.99 | > 2 | 0.988 | > 10 | 0.076 | < 0.02 | 0.87 | 0.113 | 0.991 | > 10 | 0.971 | > 0.0125 | 0.921 | > 20 | 0.575 | 1.99 | 0.788 | 0.109 | 0.99 | > 1 | 0.941 | > 2.56 | 0.991 | > 16
15 | NEC8 (testis, adherent) | 0.986 | > 1.02 | 0.957 | > 2.56 | 0.853 | 1.21 | 0.823 | 4.75 | 0.018 | < 0.02 | 0.972 | > 0.128 | 0.932 | > 10 | 0.489 | 0.000734 | 0.491 | 1.19 | 0.118 | 0.0999 | 0.74 | 0.068 | 0.989 | > 1 | 0.554 | 0.22 | 0.965 | > 16
16 | NU-DUL-1 (B-cell lymphoma, suspension) | 0.992 | > 1.02 | 0.985 | > 2.56 | 0.993 | > 2 | 0.794 | 3.63 | 0.014 | < 0.02 | 0.573 | 0.0122 | 0.993 | > 10 | 0.722 | 0.00286 | 0.889 | 15.1 | 0.106 | 0.099 | 0.705 | 0.0526 | 0.992 | > 1 | 0.591 | 0.27 | 0.959 | > 16
17 | OMC-1 (cervix, adherent) | 0.975 | > 1.02 | 0.986 | > 2.56 | 0.986 | > 2 | 0.932 | > 10 | 0.074 | < 0.02 | 0.935 | > 0.128 | 0.988 | > 10 | 0.854 | 0.0106 | 0.951 | > 20 | 0.471 | 1.04 | 0.767 | 0.0996 | 0.925 | > 1 | 0.863 | 2.37 | 0.988 | > 16
